# ± gives the standard deviation of the averaged measurements. The list shows a part of the results.
# System: PfAP2-LT AP2 domain (GST-tagged)
# Assay: gcPBM binding intensity (ln(normalized median fluorescence intensity)); higher = stronger DNA binding
# Method in brief: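 GST-fused DNA-binding domains of P. falciparum, expressed in E. coli, were applied at about 25 μg on average for 1 h to an Agilent 4 × 180k array of primer-extended double-stranded 36-bp intergenic genomic probes and negative controls. Binding intensity is the highest Masliner-normalised natural-log median intensity across replicate spots of either probe orientation, measured with Alexa488 anti-GST antibody and a 488 nm scan.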
row,Sequence,gcPBM binding intensity (ln)
1,ATAATATAATATATATGTACACATCCTTTTTGTGTA [XGTACX_site2879],8.96 ± 0.3
2,TAAAAGTAAAAAGGTAGTACCTAAATAATATATATA [XGTACX_site8399],8.76 ± 0.5
3,ATAAGATAGGCATATACACACATTTATTTACAGATA [CACACA_site5754],9.09 ± 0.31
4,AGTAGGCATATTGGTTGTACAAAAAAATTATGCACC [XGTACX_site8925],8.99 ± 0.53
5,TTTTTTTTTTCTCTCGCACACATTTTTTAAAATGAG [CACACA_site2607],8.97 ± 0.57
6,ATATTTATATAGATGTGTACATAAATATAATAACAT [XGTACX_site1681],8.93 ± 0.45
7,ATATATATATATGTTTATTTATTTGAACGATTGTGG [CACACA_negctrl_site828],9.16 ± 0.36
8,GACTCTTAAAAAATTTGTACCCACATAAATAATATA [XGTACX_site4313],8.47 ± 0.4
9,TTTGGGTATACACATACATGCATGTCCTTATATATA [TGCATGCA_site84],9.31 ± 0.39
10,ATATCATAAATTTATGCATGTTCTTTCTTCAACTCT [TGCATGCA_site992],8.91 ± 0.54
11,ATTATTTATTTATTTTTTTTTTTTTTCTCTTTTCCT [GTGCAC_negctrl_site656],8.59 ± 0.72
12,ATGATAGTAATTAATAGTACTTTTTTTGATACAAAA [XGTACX_site4288],8.43 ± 0.42
13,TCGTGTTTTAAAAAAATGAAGAAAAGTAAAAAAAAA [XGTACX_negctrl_site23],8.43 ± 0.52
14,TAATATGAATATATATGTACATACAATTTGTTATAT [XGTACX_site5815],8.92 ± 0.28
15,ATTAAATGTATGACTTGTACATAAAATAAAAAAAAA [XGTACX_site6555],8.79 ± 0.5
16,TAAAGATATAAATGCACACGTATTAAAAAAAAAATA [CACACA_site952],9.01 ± 0.44
17,TTATCATTACATGAGTGTACATTATTATATTTTTTT [XGTACX_site7845],8.91 ± 0.42
18,GAAAGAAAGAAAGAAAGTACATATAAAAATATACAT [XGTACX_site7299],8.8 ± 0.5
19,ATATATTTTTTTTTTTGTACGTATATTTATATAATT [XGTACX_site8719],8.9 ± 0.38
20,CAAGAATTAAAATAAAGTACAAAAGTAACAACTTTT [XGTACX_site1474],8.68 ± 0.52
21,AAAAAAAAGGAAAAGGGTACAAAACCATACTTACAT [XGTACX_site4783],8.96 ± 0.49
22,ATTAGTGACATTATTACACACAAAAGAAAACAGAAA [CACACA_site3984],9.13 ± 0.39

row,Sequence,gcPBM binding intensity (ln)
1,TGAATCTATATACAGGTGCGTAAAAAATAACTTATA,8.62 ± 0.52
2,GTATCATAAAAGTATACACACATACATACATATGTA [CACACA_site5456],9.07 ± 0.32
3,GCACACATATAATTAAACATATATTTGTATTATTTT [GTGCAC_negctrl_site327],9.03 ± 0.51
4,TGTATGATTATGTTGTGTACGTAAAATATGAAAAAT [XGTACX_site1720],8.88 ± 0.45
5,ATCTCTACAAAGTGCACACACGTAAAAACATATATA [CACACA_site6046],9.31 ± 0.35
6,ATTTTCCTTTAATTATGTACTTATGTAATAATAATG [XGTACX_site2612],8.62 ± 0.46
7,TTTTAATGTATATTTTGTACGTATTATTAATATTCG [XGTACX_site8453],8.82 ± 0.5
8,TATCCTAATGCTACCACACACACAAAAACAAATAAT [CACACA_site2609],9.39 ± 0.29
9,AATATTTATGGGTGCACACAAACATACATATATATA [CACACA_site3395],9.23 ± 0.49
10,CCTTACTTCTTATAAAGTACCCAATGATATACATTA [XGTACX_site1554],8.57 ± 0.45
11,ATGTTGAAAGGAAAAAATAATAAAATCGATATATTA [CACACA_negctrl_site549],8.54 ± 0.52
12,AAAAAAAAGAATAGAGCATGCAAAATATATGAAATA [TGCATGCA_site933],9.23 ± 0.56
13,AGTATATAAAATACTGTATCGATGGGGGAGGGCGCA [CACACA_negctrl_site1612],10 ± 0.44
14,ACAAATAAATAAAAAACACACACAAATAAATAAATA [CACACA_site8708],9.57 ± 0.38
15,TAATAATAAAATATTTGTACATATAAAATATGGCTG [XGTACX_site7904],8.59 ± 0.34
16,AATATAATGCAATATACACACATATATTTCTCTTTT [CACACA_site7276],8.93 ± 0.36
17,TATAAAAAATAATTATCATGAAATATATGATCATCA [TGCATGCA_negctrl_site137],8.52 ± 0.36
18,ATTATTATTTATATGATACACACGTACATATACGCA [CACACA_site3823],8.98 ± 0.4
19,TATATTTTTTATAAATGTACATGGATAGGCATAAAC [XGTACX_site8401],8.73 ± 0.4
20,TTAAAAAAAATATAATGTACTTGTAGAATTATATTT [XGTACX_site6220],8.2 ± 0.41
21,ATATGAATAAATAAAAGTACATACATAATGTATTAT [XGTACX_site5969],8.88 ± 0.45
22,TCAAAAATGAGTTACACACACACATATATATATATA [CACACA_site2229],9.87 ± 0.19

# From the supplement of paper PMC11417369
